Screen size: about 43,000 compounds; about 200 (0.47%) were called active. Roughly 12% stayed inconclusive and do not appear here. Calls come from the whole dose curve; as a rule, active = well fitted cell-killing curve with a large enough effect; inconclusive = small, poorly fitted or top-dose-only effect, or effect the other way; inactive = flat fitted curve, though single readings scatter. This is one part of the list.
% is set by controls: 0 for no effect and ±100 for the full control effect.

This assay is described as follows: Cell viability qHTS assay in S16 Pmp22-F2sN cells. Note: nearly all actives have a fitted effect of over 65% in size. The conditions noted are these: S16 Pmp22-F2sN Schwann cells (luciferase reporters placed in the Pmp22 gene) viability, CellTiter-Glo, 24 h; series mostly up to 57.5 µM; activity change, negative = cytotoxicity: at the top concentration. In a few lines:
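Luminescence from CellTiter-Glo, read by CCD camera after a 15 min room-temperature incubation, served as the viability signal. Reporter Schwann cells (S16 Pmp22-F2sN) had been treated with pin-transferred compounds for 24 h at 37C.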
Turning to `CCC1CN(C(=O)N2CCC(C(=O)NCCc3ccccc3C)CC2)c2ccccc2O1` (configuration not stated), the “activity change, negative = cytotoxicity” value was inactive: -19.1%.
For `Cc1ccc(C)c(Nc2ncnc3onc(C)c23)c1` the value was inactive: -2.53%; for `COc1ccc(NC(=O)CCSc2nc(-c3ccco3)cc(C(F)(F)F)n2)cc1`, inactive: -3.83%.
The same measure for `COc1ccc(NC(=O)CSc2ncccc2C(=O)O)cc1OC`: inactive: 3.48%.
For `COc1ccc(-c2nc3cc(C(C)C)ccc3o2)cc1NC(=O)COc1ccc(C)cc1C` the value was inactive: 7.55%; for `O=C(Cn1c(=O)c2ccccc2n(CC(=O)Nc2ccc(F)cc2F)c1=O)NCCc1ccccc1`, inactive: 26.2%; for `CCN(C(=O)c1cc2c(=O)oc3ccc(C)cc3c2s1)c1cc(OC)ccc1OC`, inactive: 1.51%.
In the case of `COc1ccc(CNC(=O)CN2N=C(c3ccccc3)CCC2=O)c(OC)c1`, the “activity change, negative = cytotoxicity” value is inactive: 12.5%.
`CCn1c(=O)c(=O)n(CC)c2cc(N3CCCCC3)c(NC(=O)c3ccc(Cl)cc3)cc21`: the “activity change, negative = cytotoxicity” value is inactive: -0.561%.
For `COCCCNc1nc2cc(OC)c(OC)cc2c2nc(-c3ccccc3)nn12`, the “activity change, negative = cytotoxicity” value was inactive: 4.22%.
`Cc1ccccc1N1CC(C(=O)Nc2ccc(Br)cc2)CC1=O` (configuration not stated): the “activity change, negative = cytotoxicity” value was inactive: -0.641%.
The same measure for `COc1ccc(C(=O)NCc2nnc(SCC(=O)Nc3ccccc3)n2-c2ccccc2)cc1`: inactive: -13.9%.
For `COc1cc(Cl)c(C)cc1NC(=O)c1ccc2c(SCC(=O)O)c3c(nc2c1)CCCC3` the value was inactive: 1.75%; for `O=C(CSc1n[nH]c(-c2ccccc2)n1)NCCCc1ccccc1`, inactive: 10.7%; for `Cc1ccc(-n2nnc(-c3nsc(NC(=O)c4cccc(Cl)c4)n3)c2C)cc1C`, inactive: -23.7%.
For the molecule `Cc1nnc(N2CCCC(C(=O)NCc3ccccc3F)C2)c2nn(-c3ccc(Cl)cc3)c(C)c12` (configuration not stated), the “activity change, negative = cytotoxicity” value is inactive: 9.77%.
The same measure for `CC(C)CCNC(=O)c1ccc2c(c1)N(Cc1cccc(Cl)c1)C(=O)c1ccccc1S2`: inactive: -10.8%; for `CCCC(=O)n1nc(-c2ccco2)nc1NCc1ccccc1Cl`: inactive: 0.107%; for `O=C(Nc1nnc(S(=O)(=O)N2CCOCC2)s1)c1ccccc1Cl`: inactive: -7.16%.
For the molecule `O=C(Nc1ccc2nc(SCc3ccccc3)sc2c1)c1ccccc1F`, the “activity change, negative = cytotoxicity” value was inactive: 5.57%.
For `O=C(Nc1ccc(F)c(Cl)c1)c1cc(S(=O)(=O)N2CCc3ccccc3C2)ccc1F` the value was inactive: -8.64%.
For `Cc1ccc(OCC(=O)Nc2ccc3c(c2)nc(CCNC(=O)c2ccco2)n3C)cc1` the value was inactive: 8.11%; for `COc1ccc(N2CCN(C(=O)CN3C(=O)CSc4c3c(C)nn4-c3ccccc3)CC2)cc1`, inactive: 42.5%.
For `CC(=O)Nc1ccc(NC(=O)C2CCCN2S(=O)(=O)c2ccc3c(c2)CCCC(=O)N3)cc1` (configuration not stated) the value was inactive: -15.9%.
Consider `COc1ccc(OC)c(CCNC(=O)c2cc3c(=O)oc4ccc(C)cc4c3s2)c1`, for which the “activity change, negative = cytotoxicity” value is inactive: 1.3%.
For `Cc1ccsc1CN(C(=O)c1oc2cc(Br)ccc2c1C)C1CCS(=O)(=O)C1` (configuration not stated) the value was inactive: -17%; for `Cc1cc(C(=O)Nc2ccc(C(C)C)cc2)c2c(C)nn(-c3ccccc3)c2n1`, inactive: -0.494%.
With `COC(=O)Cn1c(=O)c2cccn2c2cccnc21`, the “activity change, negative = cytotoxicity” value is inactive: 7.22%.
The same measure for `COc1ccc(Cn2c(=O)c3oc4ccccc4c3n(Cc3cccc(C)c3)c2=O)cc1`: inactive: 0.562%.
For `CCOc1ccccc1NC(=O)Cn1cc(C(=O)c2ccc(Cl)cc2)c(=O)c2ccc(C)nc21` the value was inactive: 5.75%; for `Cc1cccc2c(=O)cc(CSc3ccccc3NC(=O)c3cccc(F)c3)[nH]c12`, inactive: -13.3%.
The same measure for `COc1ccccc1CNc1ccc(-c2nc(-c3ccco3)no2)cc1[N+](=O)[O-]`: inactive: 8.17%; for `CN(C)CCCN(C(=O)c1ccc2c(c1)OCCO2)c1nc2ccccc2s1`: inactive: -0.549%.
Turning to `COc1ccc(NC(=O)Cn2cnc3c(oc4ccccc43)c2=O)cc1OC`, the “activity change, negative = cytotoxicity” value is inactive: -3.31%.
In the case of `CC(C)NC(=O)C1CCC(Cn2c(=O)c3sccc3n(CC(=O)NCc3ccccc3)c2=O)CC1` (configuration not stated), the “activity change, negative = cytotoxicity” value was inactive: 25.4%.
The same measure for `CCCOc1c(Cl)cc(C(=O)N(Cc2cccc(OC)c2)C2CCS(=O)(=O)C2)cc1Cl` (configuration not stated): inactive: 5.68%; for `CCOc1ccc(NC(=O)c2cnc(N3CCCCC3)c3ccccc23)cc1`: inactive: -1.74%; for `CN(c1ccccc1)S(=O)(=O)c1nnc(NC(=O)c2ccccc2)s1`: inactive: -2.14%.
For `CCOC(=O)c1c(-c2ccccc2)csc1NC(=O)c1cc(-c2ccc(F)cc2)on1` the value was inactive: 2.83%; for `O=C(NCc1ccc2c(c1)OCO2)c1ccc2c(c1)N(Cc1ccccc1)C(=O)c1ccccc1S2=O` (configuration not stated), inactive: -1.39%; for `COc1cccc(NC(=O)C2CCCN(S(=O)(=O)c3ccc4[nH]c(=O)ccc4c3)C2)c1` (configuration not stated), inactive: -2.54%.
The same measure for `Cn1cc(C(=O)N2CCN(c3cccc(C(F)(F)F)c3)CC2)c2c3ccccc3n(C)c2c1=O`: inactive: -13.7%; for `CC(=O)Nc1ccc(NC(=O)Cn2nc(C(=O)Nc3ccc(C)cc3)ccc2=O)cc1`: inactive: -4.89%; for `CCOc1ccc(-c2cc3c(=O)n(CC(=O)NCc4ccc(Cl)cc4)ccn3n2)cc1`: inactive: 4.57%.
In the case of `O=C(O)CCn1cnc2onc(-c3cc(F)cc(F)c3)c2c1=O`, the “activity change, negative = cytotoxicity” value is inactive: 24.5%.
For `CCCOc1ccc(Oc2nc(NCC(C)C)nc(N3CCOCC3)n2)nn1` the value was inactive: 0.0332%; for `Cc1ccc(-n2c(SCC(=O)O)nc3sc4c(c3c2=O)CCCC4)cc1`, inactive: 11.6%.
For `CC1CCc2nc3ncn(Cc4ccccc4F)c(=O)c3cc2C1` (configuration not stated) the value was inactive: 2.17%.
For `O=C(Nc1ccc(OCc2cc(=O)n3c4c(sc3n2)CCCC4)cc1)c1ccccc1` the value was inactive: 3.12%; for `CCOc1ccc(OCC)c(NS(=O)(=O)c2c(C(=O)N3CCC(C)CC3)c(C)n(C)c2C)c1`, inactive: 8.22%.
Regarding `COc1ccc(N2CC(NC(=O)c3ccc4c(c3)OCO4)CC2=O)cc1` (configuration not stated), the “activity change, negative = cytotoxicity” value was inactive: 8.3%.
For `COc1ccc(NC(=O)CN(c2ccc(C)cc2)S(=O)(=O)c2cccc3nonc23)cc1OC` the value was inactive: -1.57%; for `Cc1ccc(CNS(=O)(=O)c2ccc(-c3cc(C(F)(F)F)on3)s2)cc1`, inactive: -1.86%; for `Nc1c(C(=O)Nc2ccccc2)nnn1Cc1ccc(F)cc1Cl`, inactive: 0.269%.
For `Cc1ccc(N2C(=O)[C@@H]3CSC(c4ccc(F)cc4)N3C2=O)cc1` (some centres not stated) the value was inactive: 2.81%.
The same measure for `CCOc1ccccc1C(=O)Nc1nc2c(s1)CC(C)CC2` (configuration not stated): inactive: 1.01%; for `COC(=O)Cn1c(=O)c2c(nc3n2CCN3c2ccc(F)cc2)n(C)c1=O`: inactive: 13.5%; for `O=C(NCc1ccccc1Cl)NCc1noc2ccccc12`: inactive: 5.54%.
Take `Cc1nn(C(C)(C)C)c(OC(=O)C(C)(C)C)c1Sc1ccccc1`: the “activity change, negative = cytotoxicity” value is inactive: -0.633%.
For `O=C(Nc1ccc(Cl)c(-c2nc3cc(Cl)ccc3o2)c1)c1cc([N+](=O)[O-])ccc1N1CCOCC1` the value was inactive: 2.64%; for `COc1cc(NC(=O)COCc2cc(-c3ccc(F)cc3)on2)cc(OC)c1OC`, inactive: -27.4%.
The same measure for `Cc1ccc(C(=O)Nc2cc3c(cc2N2CCCC2)n(C)c(=O)c(=O)n3C)cc1`: inactive: 14.5%.

Values taken from PubChem BioAssay AID1508642 (National Center for Advancing Translational Sciences (NCATS), 2021).
